The other results are listed elsewhere or left out. Values were computed here from the reads of four pooled replicates and scatter widely.
Biological target: T1, Pho4 (S. cerevisiae) (UniProt P07270)
T1 sequence: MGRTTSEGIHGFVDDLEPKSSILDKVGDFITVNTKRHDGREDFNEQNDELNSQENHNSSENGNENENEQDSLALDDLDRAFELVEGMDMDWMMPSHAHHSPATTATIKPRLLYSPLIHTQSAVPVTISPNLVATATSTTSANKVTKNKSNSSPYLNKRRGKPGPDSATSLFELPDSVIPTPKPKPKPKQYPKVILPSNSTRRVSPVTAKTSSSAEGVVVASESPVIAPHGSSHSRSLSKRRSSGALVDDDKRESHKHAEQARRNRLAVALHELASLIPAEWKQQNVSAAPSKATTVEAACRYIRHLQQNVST
Assay: relative binding free energy (BET-seq); higher = weaker binding
Settings: reference: library average

Row | Sequence | relative binding free energy [kcal/mol]
1 | GAGTTCACGTGAGTTT | 0.36
2 | ATGTCCACGTGAGTGG | 0.19
3 | TGTTCCACGTGGGAGA | -0.02
4 | TCGTGCACGTGGTGAT | -0.02
5 | AGGTCCACGTGTGGTA | 0.11
6 | GTTTGCACGTGGTCGT | -0.05
7 | GTTACCACGTGGGGGA | -0.15
8 | GGTCCCACGTGGTGTT | -0.2
9 | TAGGCCACGTGGTAAG | -0.13
10 | TATGGCACGTGGGGTA | -0.25
11 | GTCTGCACGTGGGGTT | -0.16
12 | GGTTACACGTGTTATA | 0.09
13 | AGGGGCACGTGGCGGG | -0.1
14 | AAGTCCACGTGTAGGT | -0.08
15 | GTATGCACGTGTTGGA | 0.09
16 | GTAGGCACGTGTGTTA | -0.04
17 | AGTGCCACGTGAAGAG | 0.18
18 | TCAGGCACGTGAGTTG | 0.12
19 | AATAACACGTGTGGTG | 0.01
20 | CGATTCACGTGGGGAT | 0.19
21 | TCCGTCACGTGGATTG | 0.26
22 | AGTGGCACGTGATAAT | 0.07
23 | ATCATCACGTGTAGTT | 0.08
24 | CGGATCACGTGAAGTG | 0.26
25 | TGCGGCACGTGTCGTA | -0.16

Row | Sequence | relative binding free energy [kcal/mol]
26 | TATTTCACGTGTTTAC | 0.09
27 | AAGTGCACGTGTGGGC | -0.02
28 | TATACCACGTGGGTGT | -0.28
29 | GCGCTCACGTGGGCGG | 0.14
30 | TTTTTCACGTGGGCAG | 0.16
31 | GAGAGCACGTGGAGGC | 0.01
32 | GCGTTCACGTGGGTGG | 0.17
33 | ATTATCACGTGGATAA | 0.15
34 | CGTGGCACGTGTTAAA | 0.07
35 | TTATGCACGTGGTGTA | -0.21
36 | AGTTTCACGTGGAAGG | 0.43
37 | AGTGCCACGTGGGTAG | -0.27
38 | AAAAGCACGTGTAGTT | -0.04
39 | AGAAGCACGTGACGTT | 0.24
40 | TTTATCACGTGGAAAG | 0.12
41 | TTATTCACGTGTGCTT | 0.25
42 | CAGTTCACGTGTGCAG | 0.32
43 | GGGGTCACGTGCATGG | 0.12
44 | CATGACACGTGGGGAT | -0.14
45 | ACTGGCACGTGGTGTG | -0.24
46 | GTATGCACGTGTGGGG | 0.08
47 | CTTGTCACGTGAATTG | 0.34
48 | ATTATCACGTGAGGAG | 0.31
49 | GATTTCACGTGATGTA | 0.32
50 | GGGGCCACGTGACGGT | -0.01

Row | Sequence | relative binding free energy [kcal/mol]
51 | CGTAGCACGTGTGAGG | 0
52 | GTATTCACGTGCATTG | 0.36
53 | AATGACACGTGTGAGA | 0.12
54 | AACTGCACGTGGAGTT | 0.11
55 | GCGATCACGTGGGTTT | 0.17
56 | GTAGTCACGTGGCGGG | 0.18
57 | TGGCACACGTGTGGAG | -0.06
58 | AAATGCACGTGTTTGG | -0.05
59 | TGATTCACGTGAGGCG | 0.2
60 | TTCGGCACGTGGTAGT | -0.09
61 | TTTGGCACGTGAGAGT | 0.16
62 | TGTTACACGTGAAAGC | 0.45
63 | GTTTTCACGTGATCGA | 0.41
64 | TCGGTCACGTGTTATT | 0.25
65 | AAGAACACGTGTTGTG | -0.14
66 | GGTAGCACGTGTAGGT | -0.07
67 | GGGTGCACGTGGTAAT | 0
68 | GAGGTCACGTGGTATA | 0.13
69 | AGAGACACGTGGGGAT | 0.03
70 | GTGTCCACGTGAGTGT | 0.08
71 | ATTAGCACGTGGTAGT | -0.09
72 | TGTGCCACGTGGGGTA | -0.42
73 | TTTTTCACGTGGGCAA | 0.23
74 | GAGCGCACGTGGGCGT | -0.2
75 | TGAAACACGTGGTATG | -0.12

Row | Sequence | relative binding free energy [kcal/mol]
76 | TCTGACACGTGGTGAG | -0.02
77 | TGTGGCACGTGTAGAG | -0.13
78 | TAGAACACGTGGGTAT | -0.14
79 | GGATACACGTGCAGTT | 0.22
80 | GGGGACACGTGGCGTT | 0.04
81 | CGTCTCACGTGGGTTG | 0.11
82 | ATTGACACGTGGGAAG | 0.07
83 | TGTGTCACGTGGCTAT | -0.02
84 | ATTCTCACGTGCTTTT | 0.22
85 | TGTTGCACGTGAGCAT | 0.21
86 | GTTTCCACGTGTGGGT | 0.11
87 | AGGGACACGTGGATGG | -0.04
88 | TTTGGCACGTGACGAG | 0.04
89 | GGGGCCACGTGATATT | 0.15
90 | GAATGCACGTGGTGTC | -0.08
91 | ACTGACACGTGAGGGG | 0.14
92 | AGCTACACGTGAGGTT | 0.3
93 | GTGGACACGTGGTGCG | 0.07
94 | CGCGGCACGTGGTTTG | -0.15
95 | TGGTGCACGTGCTTCG | 0.01
96 | CGGGACACGTGGGAAT | 0.07
97 | AATTGCACGTGTTGAA | 0.04
98 | AAGTCCACGTGGGTTA | -0.07
99 | CTTGGCACGTGCAGGA | -0.05
100 | GGTTGCACGTGATCTG | 0.08

Row | Sequence | relative binding free energy [kcal/mol]
101 | TGGAGCACGTGGACGA | -0.03
102 | TGCGTCACGTGGTGTG | 0.08
103 | TTTCTCACGTGATTTG | 0.36
104 | CGTTCCACGTGGCGGT | -0.03
105 | AATGTCACGTGTTCGG | -0.07
106 | AAGGTCACGTGGGTAA | -0.15
107 | GGGCCCACGTGTCGGG | 0.02
108 | ATTGGCACGTGCGAGT | -0.21
109 | GTTTCCACGTGTGATA | 0.24
110 | GCTGTCACGTGTGGCA | 0.13
111 | TATGTCACGTGGTACG | 0.03
112 | TGACGCACGTGGTGGA | -0.07
113 | CTGTCCACGTGTGGTT | -0.03
114 | TGGGACACGTGTAAGG | 0
115 | TGTGTCACGTGGGTTA | -0.08
116 | ATGTGCACGTGTACAG | 0.03
117 | TTTTTCACGTGTTGAG | 0.35
118 | CGTTGCACGTGGGGTC | -0.18
119 | TTTTTCACGTGGCTAT | 0.22
120 | GGCGGCACGTGGACGG | 0
121 | AGGAACACGTGCGGGC | 0.06
122 | TATTACACGTGGTGGA | 0.02
123 | ATATGCACGTGGGGCA | -0.25
124 | AGATACACGTGGGGCA | -0.11
125 | GGAGGCACGTGAAATT | 0.21

Row | Sequence | relative binding free energy [kcal/mol]
126 | TGGGACACGTGATGTT | 0.19
127 | GGAATCACGTGGTCTG | 0.01
128 | TTATTCACGTGGAGGA | 0.16
129 | TATGGCACGTGGCTGA | -0.15
130 | AAAGGCACGTGGGGTA | -0.33
131 | TTGCGCACGTGATATT | -0.01
132 | GGAGTCACGTGGAATA | 0.27
133 | TTATACACGTGTTAGT | 0.11
134 | ACGAGCACGTGGTGGG | -0.12
135 | ATTCGCACGTGTTGTT | -0.03
136 | TTATGCACGTGTAATT | 0.03
137 | ATAATCACGTGGTGTG | -0.02
138 | GGGGACACGTGACTTG | 0.18
139 | TTCAACACGTGGATGG | 0.02
140 | GGTTGCACGTGAAGGA | 0.43
141 | AAGGTCACGTGTAACG | 0.24
142 | ATGAGCACGTGGGTAG | -0.24
143 | ATTTACACGTGTACAG | 0.23
144 | GAAGGCACGTGTAAGT | 0.09
145 | TCGGGCACGTGAAATG | 0.08
146 | TTGGGCACGTGATGTA | 0.02
